Screen size: about 150,000 compounds; about 540 (0.36%) showed an effect of 50% or more. Some of the results follow.

The test system of this assay is Plasmodium falciparum. In words: Primary screen in NF54 nanoGlo assay, in single point, at 2uM, 72h; a lower Z score goes with more inhibition. Format: functional, Erythrocyte. The note with it: timepoint 72 hour.
Regarding `CN1CC[C@@]2(CCCN(C(=O)c3cccc(-c4ccc(O)cc4)c3)C2)C1`, the “% Inhibition” value was -7% and the Z score was 0.99.

For the compound `COc1ncc(-c2cc(-n3cccn3)ncn2)c(OC)n1`, the “% Inhibition” value was -11% and the Z score is 1.45.

In the case of `O=C(O)C1CCCC(C(=O)Nc2ccsc2)C1` (stereo not drawn), the “% Inhibition” value is recorded as -9% and the Z score amounted to 0.88.

As to `Cc1c(C(=O)NCCC(C)C)c(C(F)(F)F)nn1C(C)C`, the “% Inhibition” value is on record as -11% and the Z score came to 1.67.

Consider `Cc1nc(CC(N)=NOCc2ccc(C(N)=O)cc2)cs1`, for which the “% Inhibition” value is recorded as -12% and the Z score is 1.26.

Consider `O=C1CN(c2ncccc2Cl)CN1CC(F)(F)F`, for which the “% Inhibition” value amounted to 10% and the Z score is -1.89.

In the case of `CC(c1ccccc1)n1cc(NC(=O)N2CC[C@@H]3OCC[C@@H]3C2)cn1` (stereo partly drawn), the “% Inhibition” value was determined as 8% and the Z score is recorded as -1.01.

For `C=CCCS(=O)(=O)NC[C@H](O)c1ccccc1C`, the “% Inhibition” value is listed as 2% and the Z score is recorded as -0.27.

Consider `Cc1ccc(-c2csc(-c3cccn3CC(=O)NCCN3CCOCC3)n2)cc1`, for which the “% Inhibition” value is given as -6% and the Z score was 0.81.

Turning to `Fc1cccc(F)c1[C@H]1CCN(c2ncnc3[nH]ccc23)C1`, the “% Inhibition” value is recorded as 16% and the Z score is reported as -2.06.

With `N#Cc1ccc(N2CC3CCC(O)CC3C2)nc1N1CC2CCC(O)CC2C1` (stereo not drawn), the “% Inhibition” value is listed as -4% and the Z score is on record as 0.67.

With `Cc1c(-c2ccc(O)cc2)nc(N)c(C#N)c1-c1cnc(NC(C)C)nc1`, the “% Inhibition” value amounted to 6% and the Z score is recorded as -0.8.

For `Cc1ccc(-c2cc(C(F)(F)F)on2)cc1S(=O)(=O)NC[C@H](C)c1ccccc1`, the “% Inhibition” value is listed as -4% and the Z score is on record as 0.66.

`O=C(CCc1cscn1)NC[C@H](O)c1c(Cl)cccc1Cl`: the “% Inhibition” value is recorded as -3% and the Z score is given as 0.34.

Take `COc1ccc(NC(=O)N2CC[C@H](CC(=O)NCc3ccccc3)C2)cc1OC`: the “% Inhibition” value is listed as 37% and the Z score is -5.41.

Take `COc1nccnc1N(C)CC[C@H]1CCCCO1`: the “% Inhibition” value was -8% and the Z score stood at 1.45.

Turning to `CC(C)N1C[C@@H]2Oc3ccc(C(F)(F)F)cc3C(=O)N(C)[C@@H]2C1`, the “% Inhibition” value is given as -8% and the Z score is given as 1.16.

Turning to `CC1(C)[C@@H](NC(=O)Nc2nnc(C3CCOCC3)s2)[C@@H]1c1ccccc1`, the “% Inhibition” value was -15% and the Z score amounted to 1.98.

`Cn1nc(-c2cccc(C(=O)N[C@H]3CCNC3=O)c2)nc1N1CCCCC1`: the “% Inhibition” value was -8% and the Z score is 1.39.

Regarding `CCC(F)(F)C(C)(C)CNC1CCCC(C(N)=O)C1` (stereo not drawn), the “% Inhibition” value was -2% and the Z score is given as 0.32.

With `COc1cc(Cl)c(NC(=O)N2CC3CC2CS3(=O)=O)cc1C` (stereo not drawn), the “% Inhibition” value was -5% and the Z score worked out at 0.99.

In the case of `COc1cccc([C@@H](C)NC(=O)N(C)CC2(N3CCOCC3)CCCCC2)c1`, the “% Inhibition” value is reported as -5% and the Z score worked out at 0.68.

In the case of `O=C(O)CCCC(=O)Nc1ccc(Br)c(Br)c1`, the “% Inhibition” value is reported as -23% and the Z score is 2.73.

Consider `O=C(c1ccccc1)N1CCN(Cc2nc(C3CCCC3)no2)CC1`, for which the “% Inhibition” value is on record as -17% and the Z score worked out at 2.57.

`Cn1ccnc1-c1ccccc1C(=O)Nc1ccc([C@@H](O)c2cccs2)cc1`: the “% Inhibition” value is 10% and the Z score is recorded as -1.23.

As to `Cc1nc(CN2CC[C@@]23CCCN(C(=O)OC(C)(C)C)C3)oc1C`, the “% Inhibition” value came to 0% and the Z score is -0.08.

For the compound `O=C(NC1C2CCC(C2)C1CO)C1CC2CCC1C2` (stereo not drawn), the “% Inhibition” value was -4% and the Z score is given as 0.61.

Take `CC(C)Oc1cc(N[C@H]2CCC[C@@H]2N(C)C)nc(N)n1`: the “% Inhibition” value is listed as -11% and the Z score was determined as 1.37.

Turning to `CC(C)(O)C#Cc1cccc(C(=O)N2CCC3(CCCC3)C2)c1`, the “% Inhibition” value is recorded as -16% and the Z score came to 2.36.

`COC(=O)c1ccc([C@H]2CC(=O)Nc3ncn(-c4cccc(C(F)(F)F)c4)c32)cc1`: the “% Inhibition” value worked out at 30% and the Z score is on record as -3.84.

On to `CCOc1ccc(-c2ccnc3c(C(=O)NCc4ccc5c(c4)OCO5)cnn23)cc1`, for which the “% Inhibition” value is given as 45% and the Z score is -5.14.

For the compound `Cc1cc(S(=O)(=O)N2CCC[C@H](n3ccnn3)C2)sc1C`, the “% Inhibition” value is -12% and the Z score came to 1.87.

Consider `Cc1nnc([C@H](C)NC2CCC3(CC2)CC3(F)F)[nH]1` (stereo partly drawn), for which the “% Inhibition” value amounted to 4% and the Z score is -0.59.

On to `CCc1ccc(C2=C(C)C(N3CCC(C(=O)NC)CC3)=NS2(=O)=O)cc1`, for which the “% Inhibition” value was -2% and the Z score worked out at 0.29.

Turning to `COc1ccc(S(=O)(=O)N2CCOCC2)cc1NC(c1ccccc1)c1ccccc1`, the “% Inhibition” value was -4% and the Z score amounted to 0.72.

As to `CCN(CC)C(=O)CN1C(=O)COc2ccc(C(=O)N3CCCCC3)cc21`, the “% Inhibition” value is -9% and the Z score stood at 1.18.

With `CCn1cc(C)c(C(=O)O)c1CC(=O)NCc1ccc(OC)cc1`, the “% Inhibition” value was -9% and the Z score stood at 1.14.

For the compound `O=C(Nc1ccc(Cl)cc1Cl)[C@@H]1CCCN1Cc1ncc(-c2ccccc2)o1`, the “% Inhibition” value is 7% and the Z score is -1.39.

Turning to `CC(C)N1C(=O)[C@H](C)N(C(=O)NCc2ccc(N(C)C)cc2)c2cccnc21`, the “% Inhibition” value was 4% and the Z score is -0.7.

`CN1CCNC[C@H]1c1nc(C2CC2)no1`: the “% Inhibition” value is on record as -11% and the Z score came to 2.19.

For `Cn1cc(Cl)cc1C(=O)N1C[C@H](O)[C@@H](N2CCCC2)C1`, the “% Inhibition” value is -11% and the Z score is listed as 2.21.

Consider `CCCCN(C)S(=O)(=O)c1cc(-c2nnc(C)o2)co1`, for which the “% Inhibition” value is listed as -9% and the Z score worked out at 1.3.

Take `COCCN1C[C@]2(CCCN(C(=O)c3ccc(C#N)nc3)C2)CCC1=O`: the “% Inhibition” value was -12% and the Z score was found to be 2.17.

Turning to `CCCc1ccc(C(=O)N2CC[C@H](N3CCN(C)CC3)[C@H](CCC(=O)O)C2)cc1`, the “% Inhibition” value was -17% and the Z score was 1.68.

Regarding `Cc1cc(CN(C)Cc2nonc2C)ccn1`, the “% Inhibition” value was -5% and the Z score was determined as 0.88.

Take `CC(C)c1ccc(OC2CCN([C@H]3CCCCN(CC(=O)O)C3=O)CC2)cc1`: the “% Inhibition” value was 3% and the Z score is given as -0.66.

Turning to `O=S(=O)(N[C@@H](c1ccc(F)cc1)c1ccccc1Cl)c1cccs1`, the “% Inhibition” value is -9% and the Z score is reported as 1.71.

With `Cc1nn(C)c(C)c1S(=O)(=O)N[C@@H](C)C(C)(C)C`, the “% Inhibition” value is -12% and the Z score was determined as 1.1.

As for `O=C1OCc2ccc(S(=O)(=O)N3CCCC4(CCCCC4)C3)cc21`, the “% Inhibition” value was -7% and the Z score is 0.94.

As for `CN(CCC(=O)O)c1nc2ccccc2nc1N1CCOCC1`, the “% Inhibition” value is listed as 1% and the Z score is given as -0.15.

With `O=C(COc1ccc2ccccc2c1)NC1CCN(C2CCCCC2O)CC1` (stereo not drawn), the “% Inhibition” value was -8% and the Z score was 0.98.

For the compound `N#Cc1ccc(-c2nc(-c3cccc(-c4csc(C5CC5)n4)c3)no2)c(F)c1`, the “% Inhibition” value is -9% and the Z score was determined as 0.99.

Turning to `Cc1ccccc1OCC(=O)NCc1ccc(C)n1C`, the “% Inhibition” value is reported as -11% and the Z score worked out at 1.7.

Take `O=C(N1CC(CO)C1)N(c1ccccc1)c1ccccc1`: the “% Inhibition” value is -3% and the Z score is listed as 0.41.

In the case of `Cc1cccc(CN(CC(=O)N2CCNCC2)C(=O)c2cccc(N(C)C)c2)c1`, the “% Inhibition” value is reported as 22% and the Z score is on record as -2.79.

Consider `O=C(c1ccc2nc(-c3ccc(F)cc3)cn2c1)N1CCN(CCO)CC1`, for which the “% Inhibition” value is reported as -7% and the Z score is reported as 1.31.

`COc1ncc(NS(=O)(=O)Cc2cc(F)cc(F)c2)c(OC)n1`: the “% Inhibition” value was -7% and the Z score came out at 1.

Turning to `Cc1noc(C)c1COc1nc(C(C)C)no1`, the “% Inhibition” value is -4% and the Z score stood at 0.55.

For `COc1cc(-c2nc(-c3ccc(Br)cc3)c(-c3ccccc3)[nH]2)cc2c1OCO2`, the “% Inhibition” value is recorded as -5% and the Z score worked out at 0.95.

`O=C(Nc1ccc(Cl)cc1F)N[C@H]1CCN(c2cc(N3CCOCC3)cnn2)C1`: the “% Inhibition” value is on record as -4% and the Z score was 0.53.

As to `O=C1NCCOCCCN(C(=O)CC2CCCCC2)[C@H]2CCCC[C@@H]12`, the “% Inhibition” value is recorded as -13% and the Z score was determined as 2.2.

Take `Cc1ccn(Cc2nc(N)nc(N(C)C)n2)c(=O)c1C#N`: the “% Inhibition” value is 33% and the Z score is given as -4.44.

For `CN(C)C(=O)CCN1CCC[C@H]1c1nc(-c2ccccc2)c[nH]1`, the “% Inhibition” value is -6% and the Z score was determined as 0.8.

As for `Cc1nc(NCc2cc(C)oc2C)n(C)n1`, the “% Inhibition” value is -6% and the Z score is given as 0.92.

Regarding `CC(C)c1ccc(NC(=O)CCC(=O)N2CCc3ccccc3C2)cc1`, the “% Inhibition” value was 36% and the Z score is reported as -0.83.

As for `CC1(C)CNc2ccc(Br)cc21`, the “% Inhibition” value stood at 14% and the Z score was -1.44.

With `CCCN(Cc1nnc(-c2ccccc2)o1)Cc1nccn1C`, the “% Inhibition” value is listed as -1% and the Z score is listed as 0.17.

Regarding `C[C@H](NCc1cc(Br)c2c(c1)OCO2)c1nccn1C`, the “% Inhibition” value is -11% and the Z score is recorded as 1.73.

In the case of `c1cc(-c2cc(C3CCN(c4cnccn4)CC3)n[nH]2)ccn1`, the “% Inhibition” value is recorded as 5% and the Z score is reported as -0.61.

As for `CN(C[C@H]1CCCCO1)C(=O)c1cc(F)c(F)c(O)c1F`, the “% Inhibition” value is listed as -3% and the Z score was 0.34.

For the compound `COCC1(C(=O)O)CCN(C(=O)NC2CCc3[nH]c4ccc(C)cc4c3C2)C1` (stereo not drawn), the “% Inhibition” value is -1% and the Z score is reported as 0.2.

As for `CCn1c(CC2CCNCC2)nn(Cc2cccc3cccnc23)c1=O`, the “% Inhibition” value was -4% and the Z score was determined as 0.69.

With `CC(=O)N1CCc2cc(S(=O)(=O)N3CC(=O)N4CCc5ccccc5[C@@H]4C3)ccc21`, the “% Inhibition” value was 2% and the Z score was -0.27.

Regarding `O=C(COc1ccc(Cl)cc1Cl)N(C1CCCC1)[C@H]1CCS(=O)(=O)C1`, the “% Inhibition” value is recorded as -22% and the Z score was determined as 4.1.

In the case of `C[C@@H](Cn1cncn1)NCC1(N2CCOCC2)CCCCCC1`, the “% Inhibition” value is -10% and the Z score was determined as 1.85.

On to `CCc1ccc(-c2c(-c3ccccc3)ncn2Cc2ncc[nH]2)o1`, for which the “% Inhibition” value is listed as -5% and the Z score turned out to be 0.46.

Take `Nc1nc(CNC(=O)c2cncs2)cs1`: the “% Inhibition” value is on record as -7% and the Z score is reported as 1.4.

As to `Cc1cc(C)c(C#N)c(-c2cccc(C(=O)N[C@@H](C)c3nc(C4CC4)no3)c2)n1`, the “% Inhibition” value worked out at 11% and the Z score is recorded as -1.79.

With `Cc1cc(C(=O)N2CCC(Cc3ccccc3)CC2)ccc1N(C)S(C)(=O)=O`, the “% Inhibition” value was -9% and the Z score was 1.55.

`CCc1noc(COCC(=O)N2CCc3cc(C)c(C)cc32)n1`: the “% Inhibition” value is -13% and the Z score came to 2.56.

Turning to `COC[C@H]1[C@H](NS(=O)(=O)c2c(C)cnn2C)[C@H]2CCO[C@H]21`, the “% Inhibition” value is recorded as -25% and the Z score was 2.54.

In the case of `Cc1oncc1CN1CCN(C(=O)c2cccc(F)c2)CC1`, the “% Inhibition” value is given as -1% and the Z score is 0.1.

On to `COc1cccc([C@@H]2CNC(=O)c3nc(-c4nccn4C(C)C)[nH]c3C2)c1`, for which the “% Inhibition” value was determined as 1% and the Z score is recorded as -0.26.

For the compound `O=C(NS(=O)(=O)c1cc(Cl)sc1Cl)c1ccc2c(c1)OCO2`, the “% Inhibition” value amounted to 6% and the Z score is given as -0.77.
